The values below come from PMC4336329 (PLoS ONE, 2015).

SMILES strings stand for the structures. Out of some 310,000 compounds screened, about 2,200 (0.71%) showed an effect of 50% or more. Effects have a minus sign here. The list shows a part of the results.

For the assay, the target named is human ether-à-go-go-related gene (hERG) potassium channel (human, UniProt Q12809). The experiment in a line: primary screen, population patch clamp on CHO cells stably expressing hERG.
human ether-à-go-go-related gene (hERG) potassium channel, sequence (Q12809 whole entry, looked up): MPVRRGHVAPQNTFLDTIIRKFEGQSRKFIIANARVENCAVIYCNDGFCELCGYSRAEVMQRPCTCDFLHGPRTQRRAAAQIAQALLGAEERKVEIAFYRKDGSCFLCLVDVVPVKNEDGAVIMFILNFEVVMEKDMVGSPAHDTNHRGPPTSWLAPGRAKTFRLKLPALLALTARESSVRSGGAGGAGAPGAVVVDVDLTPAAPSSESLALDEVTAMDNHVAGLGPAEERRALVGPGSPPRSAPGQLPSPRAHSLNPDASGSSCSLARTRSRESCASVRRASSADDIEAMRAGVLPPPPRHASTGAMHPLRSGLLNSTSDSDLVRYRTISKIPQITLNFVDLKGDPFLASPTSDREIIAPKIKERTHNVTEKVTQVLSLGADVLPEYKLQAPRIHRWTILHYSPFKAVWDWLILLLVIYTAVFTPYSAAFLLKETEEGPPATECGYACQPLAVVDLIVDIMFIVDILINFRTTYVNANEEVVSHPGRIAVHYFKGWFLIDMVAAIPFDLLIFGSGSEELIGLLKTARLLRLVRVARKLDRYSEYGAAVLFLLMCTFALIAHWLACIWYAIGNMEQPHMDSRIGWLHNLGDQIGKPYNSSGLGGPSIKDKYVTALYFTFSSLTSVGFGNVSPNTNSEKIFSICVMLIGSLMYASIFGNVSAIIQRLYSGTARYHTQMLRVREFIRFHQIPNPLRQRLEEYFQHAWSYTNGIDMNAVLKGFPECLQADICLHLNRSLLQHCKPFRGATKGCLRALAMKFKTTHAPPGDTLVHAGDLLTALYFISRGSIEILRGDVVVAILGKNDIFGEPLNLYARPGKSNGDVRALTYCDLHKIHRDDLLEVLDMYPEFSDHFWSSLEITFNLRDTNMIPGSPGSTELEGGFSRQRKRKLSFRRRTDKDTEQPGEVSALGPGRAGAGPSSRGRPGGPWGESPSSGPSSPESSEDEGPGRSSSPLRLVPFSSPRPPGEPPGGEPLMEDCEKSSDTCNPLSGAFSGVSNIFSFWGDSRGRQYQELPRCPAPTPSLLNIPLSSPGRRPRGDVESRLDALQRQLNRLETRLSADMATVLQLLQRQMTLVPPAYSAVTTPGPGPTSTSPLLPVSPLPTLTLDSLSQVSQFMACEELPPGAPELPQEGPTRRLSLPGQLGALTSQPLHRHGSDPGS
`CCCNC(=O)CSC1=N/C(=C/c2ccc(F)cc2)C(=O)N1CC`: the “hERG current change (%, negative = inhibition) at 1uM” value is reported as 9.05%.
With `CCOC(=O)c1c(C)oc2ccc(NS(=O)(=O)c3ccc4c5c(cccc35)C(=O)N4)cc12`, the “hERG current change (%, negative = inhibition) at 1uM” value is listed as -4.16%.
As for `CCOc1ccccc1NC(=O)CSc1nc2ccccc2c(=O)n1CC1CCCO1` (stereo not drawn), the “hERG current change (%, negative = inhibition) at 1uM” value is listed as -35.6%.
`COc1ccc2nc(/N=C/c3c(O)n(-c4cccc(Cl)c4)c(=O)[nH]c3=O)sc2c1`: the “hERG current change (%, negative = inhibition) at 1uM” value turned out to be 4.11%.
Take `Cc1ccc(Cc2nnc(SCC(=O)Nc3ccc(C)cc3C)[nH]c2=O)cc1`: the “hERG current change (%, negative = inhibition) at 1uM” value is given as 9.56%.
Regarding `CC(/C=N/NC(=O)Cn1cnc2ccccc21)=C\c1ccccc1`, the “hERG current change (%, negative = inhibition) at 1uM” value was determined as 3.77%.
For the molecule `COc1ccc(/C=C2\N=C(SC)N(c3ccccc3OC)C2=O)cc1`, the “hERG current change (%, negative = inhibition) at 1uM” value is 8.55%.
Take `Cc1cc(C)n(-c2nnc3n2N=C(c2c[nH]c4ccccc24)CS3)n1`: the “hERG current change (%, negative = inhibition) at 1uM” value is -1.96%.
With `C/C(=N\NC(=O)CNC(=O)c1ccc(Br)cc1)c1ccco1`, the “hERG current change (%, negative = inhibition) at 1uM” value is recorded as 11.7%.
The figure for `O=C(Cn1nc(-c2ccccc2Cl)ccc1=O)Nc1ccccc1-c1ccccc1` is 4.87%; for `CCCCC(Sc1nc(N)c(NC(=O)c2ccc(OCC)cc2)c(=O)[nH]1)C(=O)O` (stereo not drawn) it is 9.47%.
Consider `CCCCCCc1cc2cc(C(=O)Nc3ccc(OC)cc3)c(=O)oc2cc1O`, for which the “hERG current change (%, negative = inhibition) at 1uM” value was determined as 9.87%.
The figure for `O=C(Nc1csc([N+](=O)[O-])c1)Nc1c(Cl)cccc1Cl` is 9.62%; for `O=C(NC(=S)Nc1ccc(S(=O)(=O)N2CCOCC2)cc1)c1ccccc1[N+](=O)[O-]` it is 10%; for `CCN(CC)S(=O)(=O)c1cc(Br)c(C)cc1OC` it is -14.5%.
In the case of `Cc1sc(/C=C2\C(=O)ON=C2c2ccccc2)cc1Br`, the “hERG current change (%, negative = inhibition) at 1uM” value stood at 12.4%.
Take `O=C(O)c1cn(C2CC2)c2cc(N3CCN(S(=O)(=O)c4ccc5c(c4)OCCO5)CC3)c(F)cc2c1=O`: the “hERG current change (%, negative = inhibition) at 1uM” value came out at 15.3%.
The figure for `CCOc1cc(/C=C2/SC(=S)N(C)C2=O)ccc1Oc1ccc([N+](=O)[O-])cc1[N+](=O)[O-]` is 13.8%; for `COc1ccc(C(=O)Nc2ccc(OCC(F)(F)C(F)F)c(C(F)(F)F)c2)cc1OC` it is 12.1%; for `Cc1ccc(N2CC(C(=O)NC3=NCCS3)CC2=O)cc1` (stereo not drawn) it is 12.3%.
The figure for `COC(=O)Cc1ccc(NC(=O)c2ccc(Br)o2)cc1` is 4.26%.
The figure for `O=C(NCCN1C(=O)S/C(=C\c2ccc(OC(F)F)cc2)C1=O)[C@@H]1CCCN1C(=O)c1cccs1` is -5.87%; for `O=C(Nc1ccc2c(c1)OCCO2)c1cc2sccc2n1Cc1ccccc1` it is 12.5%; for `O=C1CCC(C(=O)NCc2ccc3c(c2)OCO3)N1` (stereo not drawn) it is -1.18%.
Turning to `O=C(O)C1CCCN(C(=O)NCc2ccccc2)C1` (stereo not drawn), the “hERG current change (%, negative = inhibition) at 1uM” value was 9.57%.
The figure for `CCC1=Nc2cc(C(=O)NCCCOC)ccc2Sc2ccccc21` is 0.797%; for `COc1cc(S(=O)(=O)N2CCN(c3ccccc3)CC2)ccc1Cl` it is 15.3%; for `O=C(N/N=C/c1ccc([N+](=O)[O-])o1)c1ccc(O)cc1` it is 13.5%.
The figure for `Cl.Fc1ccc(CNC2CN3CCC2CC3)cc1` (stereo not drawn) is 9.29%; for `S=C(NC1CCCCC1)N1CCc2[nH]c3ccccc3c2C1` it is 13.5%; for `CCN(CC)C(=O)CSc1nnc(CNc2ccc(F)cc2)o1` it is 15.6%.
The figure for `Cn1c(SCc2cccc(Br)c2)nnc1-c1ccncc1` is 6.77%; for `Cn1c2c(c(=O)n(C)c1=O)CN(CC1CCCO1)CN2` (stereo not drawn) it is 7.48%; for `Brc1ccc(CN2C3=NCCCN3c3ccccc32)cc1.Cl` it is -55.6%.
Turning to `NC(N)=NC1=NC(=O)/C(=C/c2ccccc2-n2cccn2)S1`, the “hERG current change (%, negative = inhibition) at 1uM” value is recorded as 13.3%.
In the case of `CCC1=C(OC(=O)N(CC)CC)N2C(=O)OC(=NCCc3c[nH]c4ccccc34)[C@]2(Cc2ccccc2)[C@H]2C1=CC[C@H]1C(=O)N(CC)C(=O)[C@H]12`, the “hERG current change (%, negative = inhibition) at 1uM” value is recorded as 13.8%.
The figure for `Clc1ccccc1C(c1ccccc1)(c1ccccc1)n1ccnc1` is 9.51%; for `COCCNc1oc(-c2ccccc2Cl)nc1C#N` it is -5.23%; for `COc1ccc(C2N(c3ccccc3)C(=O)C2(F)F)cc1OC` (stereo not drawn) it is 10%.
`O=C(COc1ccc2ccccc2c1)Nc1ccccc1C(=O)O`: the “hERG current change (%, negative = inhibition) at 1uM” value is 22.5%.
The figure for `C=CCNC(=O)c1ccc([N+](=O)[O-])c(Cl)c1` is 3.42%.
The figure for `Cc1ccc(C)c(Cn2cnc3c(oc4ccccc43)c2=O)c1` is 8.87%; for `O=C(Nc1ccc2oc(-c3ccccc3Cl)nc2c1)c1ncn[nH]1` it is 4.01%; for `CCOC(=O)CC1=C(C(=O)OCC)C(c2cc(OC)c(OC)cc2OC)C(C#N)=C(N)O1` (stereo not drawn) it is 5.76%.
The figure for `CCN1CCCC1CNCc1ccc(OCc2ccc(Cl)nc2)c(OC)c1.Cl` (stereo not drawn) is -2.56%.
